# This is one part of the list.
# Tested on: PF3D7_0420300 AP2 domain 1 (GST-tagged)
# Assay: gcPBM binding intensity (ln(normalized median fluorescence intensity)); higher = stronger DNA binding
# How it was run: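 Probes on an Agilent 4 × 180k array were primer-extended, double-stranded and 36 bp long, taken from intergenic genomic regions, with negative controls added. GST-tagged P. falciparum DNA-binding domains from E. coli, about 25 μg on average, were applied to the array for 1 h in 1× PBS containing 1% milk, 0.2 mg/ml BSA, 0.5% salmon testes DNA and 0.03% Triton X-100. Binding intensity, obtained after Alexa488 anti-GST antibody detection and a 488 nm scan, is the highest Masliner-normalised natural-log median intensity across replicate spots of either probe orientation.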
row,Sequence,gcPBM binding intensity (ln)
1,ATTTATTTTTATCAAGCATGCATAAAAAATAAATTA [TGCATGCA_site440],8.74
2,TATTTTTAGAAAATAAAGAAGGAGAATTGAAAATAT [CACACA_negctrl_site361],9.21
3,TTTTATTTTGGAACGTGTACATATAATTATTTATTG [XGTACX_site8094],9.32
4,AAAATATATACAAGCAAACACACGTAATATATATTA [CACACA_site2152],9.53
5,AGGTAGTTCTGTATCACACACATATAAATATAAATA [CACACA_site7110],9.44
6,GCATAAAATATGATCGCACACTGTTTAAAATACTTA [CACACA_site828],9.36
7,ATATTACTAATTAATGGTACACGTTATAATAAACTA [XGTACX_site7051],9.23
8,ATACCTTCTTCATTCACACATATACGTAAAATGTTC [CACACA_site5657],9.4
9,ATATATCACATGAACATTAAAAAAAAAAAAGAGGGG [TGCATGCA_negctrl_site187],9.63
10,GGAACATATGAACTCACACACATTTTCACTTAAATA [CACACA_site3684],9.64
11,TTTATACAATTAGACACACACAAAAAGTATAAATAT [CACACA_site6637],9.77
12,ATATCACATTCCACGGTACACACTAATAGAAAAATC [CACACA_site9204],9.65
13,AAACCTTTAGAAAATCGTACAAAACATAACCACCTA [XGTACX_site1098],9.32
14,ATTTTTTTTTTTTGTTTTTTCTTACAAATTAAATGA [CACACA_negctrl_site1457],9.25
15,AAACAAAAGTAGAAGGTAGAGTATTTTATATTTAAA [GTGCAC_negctrl_site503],9.13
16,AAATAACTCATGGGTTGTACTTAAAAAAAAAAAGAT [XGTACX_site4168],9.52
17,TTTTTTTTTTTTCACGTGCACTATACATATAAGTAA,9.2
18,CTCTTGTCATTTTGCACACACACATGGATAGGTTAT [CACACA_site5655],10.2
19,ATATATACATTTCTATGTACATATGTATATATGTAT [XGTACX_site1522],9.15
20,TTAATCTAGAGAAATTGTACATTTTATTAACACAAT [XGTACX_site1190],8.99
21,ATAAAAGAAAACAATAGTACTTTAGTTTTTCTTTTT [XGTACX_site5686],9.02
22,ACTACATAAAATGACACACACAAACTTTAAAATTTA [CACACA_site3474],9.7
23,CACCTGCACGATTGCACACAAATATGTTTTGAAGAT [CACACA_site2103],9.48

row,Sequence,gcPBM binding intensity (ln)
1,TATATTTGGAAACACACACACAAAAAAAAAAAAAAA [CACACA_site2474],9.63
2,ATATTTTCTAATCAATGTACTTATTCTACACATTAA [XGTACX_site5774],9.33
3,ATATTTTATGTAAAGGTGCAAAACAACATTAAAAAA,9.31
4,TAAAACATGTTTTTATATATTATTATTATATTTATA [XGTACX_negctrl_site8],9.18
5,ACCCAATTTTTTAGTACACACATATAAATATATAAA [CACACA_site4944],9.39
6,AACACATACAGACACACACACAAAAAAAAAAAAAAA [CACACA_site6322],9.65
7,AAAAAAAAAAGACACACACACAAATACAAATGGTAA [CACACA_site6906],10.1
8,TTTGTTATATTTAATACACACATATTATAAACCCAT [CACACA_site3716],9.51
9,ATAAAGCCATACAATACACACATTTTACATGGCTGT [CACACA_site5756],9.53
10,TAAAATTAGGAAATTGCACACAAAAAAAAACATATT [CACACA_site9349],9.69
11,ATACATATATATATATGTACACACATTAATAAAAAA [XGTACX_site6874],9.41
12,TATATTTTAGTTAATGCATGTGTGCATCCATTTAAA [TGCATGCA_site887],9.1
13,TATAAATAAATTTATACACACACACCCATATATATA [CACACA_site8183],10
14,TACCAAAATAGACACACACACAAAATATGTAAATAT [CACACA_site6963],10.2
15,ATCTAGCCATTTTTTAGTACACATAAATAAAAAAAA [XGTACX_site1257],8.96
16,CATTAATAACAAAGTTGTACAAGATAATATTATATG [XGTACX_site6832],9.27
17,TTTTATTTGACAAGCACACACTTAAATATATTTATA [CACACA_site7557],9.26
18,AAAACATTTTCAAACTGTACACATAGAACTATGCAT [XGTACX_site4087],9.24
19,ACATAAGAAGTTATATGTACATATATTTTTTAAATT [XGTACX_site8078],9.19
20,TAAACAAAATATATATGTACATATATATATATATAT [XGTACX_site6502],9.14
21,CATATATAAATCATGTGTACGTATTGAGTATCTACT [XGTACX_site6278],9.43
22,AGGATATATAATTAAGTGCATTAATTCAAAATAAAA [GTGCAC_site9702],9.17
23,ATAAGATATGTATATACACACATTTATTTACCTATA [CACACA_site7521],9.59

row,Sequence,gcPBM binding intensity (ln)
1,TTATTATTTTATAACACACACATATATATTATATCT [CACACA_site1434],9.64
2,ATATGACTTAAATATGTGCGCATTTTTTTTTTTTTT,9.21
3,TACACAAGAAAATTCACACACACACGGATATTTATA [CACACA_site7765],10.2
4,ACGTACTGCCCTAAAGTGCATATATAATATAAACGA [GTGCAC_site9911],9
5,GTATCGAAGTAAATACGTACTTAAATATGTTTAAAA [XGTACX_site1353],8.9
6,GTATTTTAATATAAATGTACATAAATGTTATATATA [XGTACX_site3475],9.12
7,AATATTGTATATAATAAACACACAATATTAAAAATA [CACACA_site8262],9.49
8,CTTTAAACCCTGAACACACACAAATACAGACAAAAA [CACACA_site247],9.84
9,ACATCTAATTTGTATACACACAATAATAAATGGTGA [CACACA_site824],9.33
10,TTGTATATATGACTTTTTTATATTTCAATTTTGTGC [CACACA_negctrl_site296],9.18
11,TATATATATTTATAATGTACATATTTTTTTTTATTT [XGTACX_site4761],9.27
12,TATTAATTTTTAAACATAATTTTTCGTATAATATAT [CACACA_negctrl_site762],8.97
13,GAGATAAAATAAAACACACACATATATTTATATAAC [CACACA_site7098],10
14,TTTACTTTCTTATTTTCACACATTTAAAAAAAAATT [CACACA_site5949],9.15
15,TATGGAAGAAAATATACACACAAAAAAAAAAAATGT [CACACA_site1486],10
16,AATTTATTATTTGTATGTACTCATATGATTCACTTA [XGTACX_site2797],9.31
17,ATACTTTTATTTTTGGTGCATATATCATGTAGACGT,9.28
18,AAATGAAATAAATGTAGTACACATATACAATATATA [XGTACX_site6951],9.39
19,TATTTTTATACAATTTAACACGGGTTATAAAATGTA [CACACA_negctrl_site566],9.02
20,TGTATATCATATATTTGTACTCAATTAATATAAACA [XGTACX_site3970],9.19
21,TTTTTTTTTTTTGTCACACATATTTGTATTAATCAT [CACACA_site5235],9.19
22,CAACATTTGAAACACACACACATACAAACAAACAAA [CACACA_site3306],10.2
23,AATATTAACAATCGCACACATATTATTTTTCCAAAA [CACACA_site4982],9.37

row,Sequence,gcPBM binding intensity (ln)
1,TGAAATGGAAACAACTGTACAAAATAAATATGATAT [XGTACX_site1311],9.53
2,ATATAAATATAGCATACACACAAAAAAATAAAATAA [CACACA_site2333],9.85
3,TTCCCTTTTGTAAAATGTACATATATATTTAAACAA [XGTACX_site3263],8.98
4,TTTTTATTAAAATGTATTTTAGGAAAAAACAAAAAA [XGTACX_negctrl_site437],8.82
5,TAAGTTCCCTTTGAATGTACATATAATGAAAAGAAA [XGTACX_site826],9.01
6,AAAAAACTTTTAAGCACACACATAGATAATATAGAT [CACACA_site6835],9.83
7,AATGTAAAATATATGTGTACATATGTTTATATATAT [XGTACX_site2216],9.23
8,AAATGTGTTTATTTAACACACAAAAGAAAAAATATA [CACACA_site6993],9.59
9,GTGTGTTGTATATACTGTACATACTTTATATATAGT [XGTACX_site1876],9.72
10,TATAACAAGTAATGTTGTACATTGTATTATGTAATA [XGTACX_site6372],9.07
11,TTACTCATGAAAGATACACACATTCATTATATATAT [CACACA_site3252],9.48
12,AGACATAAGATAATTACACACAATACATCCCTATAT [CACACA_site2227],9.88
13,AATAAAAATTTACTTTGTACACATATTAAATTCAAT [XGTACX_site1957],9.08
14,TACTTCTACAAGAGAAGTACAATATTTTTTATATTA [XGTACX_site8351],8.9
15,AAATTTACAATACATTGTACATATTAATAATATTCC [XGTACX_site3646],9.17
16,TGTAGTTTGTCCCATGCATGTTCCATTAAAATATAT [TGCATGCA_site854],9.67
17,TTAACGTAAAATATAGTGCATAGTATCATATTGATA [GTGCAC_site9527],9.17
18,CAATCAAAGAAACACACACACACCTAAACATAAAAG [CACACA_site2756],10.2
19,AATGTATATATGTAATGTACATATATAATGTATATA [XGTACX_site6510],9.19
20,AAAATCAAGTAGTATAAAGTAAGTATCATAAAAATA [CACACA_negctrl_site1554],9.36

# Reference: the supplement of paper PMC11417369
